# Data taken from the supplement of paper PMC8728848.
# The other results are listed elsewhere or left out.
# Legend:
# Assay in all cases: glycan array binding signal (z-score within array); higher = stronger binding
# Settings in all cases: glycan notation: IUPAC condensed, linker removed
# [1] = molecular target: GlcNAc(b1-3)Gal(b1-4)Glc
# Method in brief: (§1)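 Glycan array binding is given as a within-array Z-score, which can be read as non-binding when negative. The arrays, 3228 of them, came from the Consortium for Functional Glycomics database and were retained only where the protein sequence was available. Z-scores were averaged across arrays of the same protein sequence at different concentrations or buffers and across linkers.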
# [2] = molecular target: GlcNAc(b1-3)Gal(b1-4)GlcNAc
# Method in brief: as §1
# [3] = molecular target: GlcNAc(b1-3)Gal(b1-4)GlcNAc(b1-2)Man(a1-3)[GlcNAc(b1-3)Gal(b1-4)GlcNAc(b1-2)Man(a1-6)]Man(b1-4)GlcNAc(b1-4)GlcNAc
# Method in brief: as §1
# [4] = molecular target: GlcNAc(b1-3)Gal(b1-4)GlcNAc(b1-2)Man(a1-3)[GlcNAc(b1-3)Gal(b1-4)GlcNAc(b1-2)Man(a1-6)]Man(b1-4)GlcNAc(b1-4)[Fuc(a1-6)]GlcNAc
# Method in brief: as §1
# [5] = molecular target: GlcNAc(b1-3)Gal(b1-4)GlcNAc(b1-2)[GlcNAc(b1-3)Gal(b1-4)GlcNAc(b1-6)]Man(a1-6)[GlcNAc(b1-3)Gal(b1-4)GlcNAc(b1-2)Man(a1-3)]Man(b1-4)GlcNAc(b1-4)GlcNAc
# Method in brief: as §1
# [6] = molecular target: GlcNAc(b1-3)Gal(b1-4)GlcNAc(b1-3)Gal(b1-4)GlcNAc
# Method in brief: as §1
# [7] = molecular target: GlcNAc(b1-3)Gal(b1-4)GlcNAc(b1-3)Gal(b1-4)GlcNAc(b1-2)Man(a1-3)[GlcNAc(b1-3)Gal(b1-4)GlcNAc(b1-3)Gal(b1-4)GlcNAc(b1-2)Man(a1-6)]Man(b1-4)GlcNAc(b1-4)GlcNAc
# Method in brief: as §1
# [8] = molecular target: GlcNAc(b1-3)Gal(b1-4)GlcNAc(b1-3)Gal(b1-4)GlcNAc(b1-2)Man(a1-3)[GlcNAc(b1-3)Gal(b1-4)GlcNAc(b1-3)Gal(b1-4)GlcNAc(b1-2)Man(a1-6)]Man(b1-4)GlcNAc(b1-4)[Fuc(a1-6)]GlcNAc
# Method in brief: as §1
# [9] = molecular target: GlcNAc(b1-3)Gal(b1-4)GlcNAc(b1-3)Gal(b1-4)GlcNAc(b1-2)[GlcNAc(b1-3)Gal(b1-4)GlcNAc(b1-3)Gal(b1-4)GlcNAc(b1-6)]Man(a1-6)[GlcNAc(b1-3)Gal(b1-4)GlcNAc(b1-3)Gal(b1-4)GlcNAc(b1-2)Man(a1-3)]Man(b1-4)GlcNAc(b1-4)[Fuc(a1-6)]GlcNAc
# Method in brief: as §1
# [10] = molecular target: GlcNAc(b1-3)Gal(b1-4)GlcNAc(b1-3)Gal(b1-4)GlcNAc(b1-3)Gal(b1-4)GlcNAc(b1-2)Man(a1-3)[GlcNAc(b1-3)Gal(b1-4)GlcNAc(b1-3)Gal(b1-4)GlcNAc(b1-3)Gal(b1-4)GlcNAc(b1-2)Man(a1-6)]Man(b1-4)GlcNAc(b1-4)GlcNAc
# Method in brief: as §1
# [11] = molecular target: GlcNAc(b1-3)Gal(b1-4)GlcNAc(b1-3)Gal(b1-4)GlcNAc(b1-3)Gal(b1-4)GlcNAc(b1-2)Man(a1-3)[GlcNAc(b1-3)Gal(b1-4)GlcNAc(b1-3)Gal(b1-4)GlcNAc(b1-3)Gal(b1-4)GlcNAc(b1-2)Man(a1-6)]Man(b1-4)GlcNAc(b1-4)[Fuc(a1-6)]GlcNAc
# Method in brief: as §1
# [12] = molecular target: GlcNAc(b1-3)Gal(b1-4)GlcNAc(b1-3)Gal(b1-4)GlcNAc(b1-3)Gal(b1-4)GlcNAc(b1-2)[GlcNAc(b1-3)Gal(b1-4)GlcNAc(b1-3)Gal(b1-4)GlcNAc(b1-3)Gal(b1-4)GlcNAc(b1-6)]Man(a1-6)[GlcNAc(b1-3)Gal(b1-4)GlcNAc(b1-3)Gal(b1-4)GlcNAc(b1-3)Gal(b1-4)GlcNAc(b1-2)Man(a1-3)]Man(b1-4)GlcNAc(b1-4)[Fuc(a1-6)]GlcNAc
# Method in brief: as §1
# [13] = molecular target: GlcNAc(b1-3)Gal(b1-4)GlcNAc(b1-3)Gal(b1-4)GlcNAc(b1-3)Gal(b1-4)GlcNAc(b1-3)Gal(b1-4)GlcNAc(b1-2)Man(a1-3)[GlcNAc(b1-3)Gal(b1-4)GlcNAc(b1-3)Gal(b1-4)GlcNAc(b1-3)Gal(b1-4)GlcNAc(b1-3)Gal(b1-4)GlcNAc(b1-2)Man(a1-6)]Man(b1-4)GlcNAc(b1-4)GlcNAc
# Method in brief: as §1
# [14] = molecular target: GlcNAc(b1-3)Gal(b1-4)GlcNAc(b1-3)Gal(b1-4)GlcNAc(b1-3)Gal(b1-4)GlcNAc(b1-3)Gal(b1-4)GlcNAc(b1-2)Man(a1-3)[GlcNAc(b1-3)Gal(b1-4)GlcNAc(b1-3)Gal(b1-4)GlcNAc(b1-3)Gal(b1-4)GlcNAc(b1-3)Gal(b1-4)GlcNAc(b1-2)Man(a1-6)]Man(b1-4)GlcNAc(b1-4)[Fuc(a1-6)]GlcNAc
# Method in brief: as §1
# [15] = molecular target: GlcNAc(b1-3)Gal(b1-4)GlcNAc(b1-3)Gal(b1-4)GlcNAc(b1-3)Gal(b1-4)GlcNAc(b1-3)Gal(b1-4)GlcNAc(b1-2)[GlcNAc(b1-3)Gal(b1-4)GlcNAc(b1-3)Gal(b1-4)GlcNAc(b1-3)Gal(b1-4)GlcNAc(b1-3)Gal(b1-4)GlcNAc(b1-6)]Man(a1-6)[GlcNAc(b1-3)Gal(b1-4)GlcNAc(b1-3)Gal(b1-4)GlcNAc(b1-3)Gal(b1-4)GlcNAc(b1-3)Gal(b1-4)GlcNAc(b1-2)Man(a1-3)]Man(b1-4)GlcNAc(b1-4)[Fuc(a1-6)]GlcNAc
# Method in brief: as §1
# [16] = molecular target: GlcNAc(b1-3)Gal(b1-4)GlcNAc(b1-3)Gal(b1-4)GlcNAc(b1-3)GalNAc
# Method in brief: as §1
# [17] = molecular target: GlcNAc(b1-3)Gal(b1-4)GlcNAc(b1-3)GalNAc
# Method in brief: as §1
# [18] = molecular target: GlcNAc(b1-3)Gal(b1-4)GlcNAc(b1-3)[GlcNAc(b1-3)Gal(b1-4)GlcNAc(b1-3)]GalNAc
# Method in brief: as §1
# [19] = molecular target: GlcNAc(b1-3)Gal(b1-4)GlcNAc(b1-6)[Gal(b1-3)]GalNAc
# Method in brief: as §1
# [20] = molecular target: GlcNAc(b1-3)Gal(b1-4)GlcNAc(b1-6)[GlcNAc(b1-3)Gal(b1-3)]GalNAc
# Method in brief: as §1
# [21] = molecular target: GlcNAc(b1-3)Gal(b1-4)GlcNAc(b1-6)[GlcNAc(b1-3)]Gal(b1-4)GlcNAc
# Method in brief: as §1
# [22] = molecular target: GlcNAc(b1-3)GalNAc
# Method in brief: as §1
# [23] = molecular target: GlcNAc(b1-3)Man
# Method in brief: as §1
# [24] = molecular target: GlcNAc(b1-3)[GlcNAc(b1-4)][GlcNAc(b1-6)]GlcNAc
# Method in brief: as §1
# [25] = molecular target: GlcNAc(b1-3)[GlcNAc(b1-6)]Gal(b1-4)GlcNAc
# Method in brief: as §1
# [26] = molecular target: GlcNAc(b1-3)[GlcNAc(b1-6)]GalNAc
# Method in brief: as §1
# [27] = molecular target: GlcNAc(b1-4)Gal(b1-4)GlcNAc
# Method in brief: as §1
# [28] = molecular target: GlcNAc(b1-4)GlcNAc
# Method in brief: as §1
# [29] = molecular target: GlcNAc(b1-4)GlcNAc(b1-4)GlcNAc
# Method in brief: as §1
# [30] = molecular target: GlcNAc(b1-4)GlcNAc(b1-4)GlcNAc(b1-4)GlcNAc(b1-4)GlcNAc
# Method in brief: as §1
# [31] = molecular target: GlcNAc(b1-4)GlcNAc(b1-4)GlcNAc(b1-4)GlcNAc(b1-4)GlcNAc(b1-4)GlcNAc
# Method in brief: as §1
# [32] = molecular target: GlcNAc(b1-4)[GlcNAc(b1-6)]GalNAc
# Method in brief: as §1
# [33] = molecular target: GlcNAc(b1-6)Gal(b1-4)GlcNAc
# Method in brief: as §1
# [34] = molecular target: GlcNAc(b1-6)GalNAc
# Method in brief: as §1
# [35] = molecular target: GlcNAc6S(b1-3)Gal(b1-4)GlcNAc
# Method in brief: as §1
# [36] = molecular target: Kdn(a2-3)Gal(b1-3)GalNAc
# Method in brief: as §1
# [37] = molecular target: Kdn(a2-3)Gal(b1-3)GlcNAc
# Method in brief: as §1
binder,measurement,setting,value
Cohesin-hDC-ASGPR (Homo sapiens) (protein) LDDLDAVRIKVDTVNAKPGDTVRIPVRFSGIPSKGIANCDFVYSYDPNVLEIIEIEPGDIIVDPNPDKSFDTAVYPDRKIIVFLFAEDSGTGAYAITKDGVFATIVAKVKEGAPNGLSVIKFVEVGGFANNDLVEQKTQFFDGGANVGDTTEPATPTTPVTTPTTTDDLDAASQNSKFQRDLVTLRTDFSNFTSNTVAEIQALTSQGSSLEETIASLKAEVEGFKQERQAGVSELQEHTTQKAHLGHCPHCPSVCVPVHSEMLLRVQQLVQDLKKLTCQVATLNNNASTEGTCCPVNWVEHQDSCYWFSHSGMSWAEAEKYCQLKNAHLVVINSREEQNFVQKYLGSAYTWMGLSDPEGAWKWVDGTDYATGFQNWKPGQPDDWQGHGLGGGEDCAHFHPDGRWNDDVCQRPYHWVCEAGLGQTSQESHHHHHH,glycan array binding signal (z-score),[1],-0.501
same,glycan array binding signal (z-score),[2],-0.507
same,glycan array binding signal (z-score),[3],-0.48
same,glycan array binding signal (z-score),[4],-0.301
same,glycan array binding signal (z-score),[5],-0.358
same,glycan array binding signal (z-score),[6],-0.504
same,glycan array binding signal (z-score),[7],-0.165
same,glycan array binding signal (z-score),[8],-0.36
same,glycan array binding signal (z-score),[9],-0.475
same,glycan array binding signal (z-score),[10],-0.506
same,glycan array binding signal (z-score),[11],-0.394
same,glycan array binding signal (z-score),[12],-0.49
same,glycan array binding signal (z-score),[13],-0.443
same,glycan array binding signal (z-score),[14],-0.435
same,glycan array binding signal (z-score),[15],-0.48
same,glycan array binding signal (z-score),[16],-0.501
same,glycan array binding signal (z-score),[17],-0.458
same,glycan array binding signal (z-score),[18],-0.455
same,glycan array binding signal (z-score),[19],-0.442
same,glycan array binding signal (z-score),[20],-0.499
same,glycan array binding signal (z-score),[21],-0.461
same,glycan array binding signal (z-score),[22],-0.466
same,glycan array binding signal (z-score),[23],-0.46
same,glycan array binding signal (z-score),[24],-0.509
same,glycan array binding signal (z-score),[25],-0.516
same,glycan array binding signal (z-score),[26],-0.467
same,glycan array binding signal (z-score),[27],-0.452
same,glycan array binding signal (z-score),[28],-0.466
same,glycan array binding signal (z-score),[29],-0.506
same,glycan array binding signal (z-score),[30],-0.46
same,glycan array binding signal (z-score),[31],-0.484
same,glycan array binding signal (z-score),[32],-0.467
same,glycan array binding signal (z-score),[33],-0.486
same,glycan array binding signal (z-score),[34],2.75
same,glycan array binding signal (z-score),[35],-0.433
same,glycan array binding signal (z-score),[36],-0.428
same,glycan array binding signal (z-score),[37],-0.515
